{"source": "PubChem BioAssay AID686979", "about": "(National Center for Advancing Translational Sciences (NCATS), 2013)", "note": "About 50,000 (12%) of roughly 420,000 compounds were called active. The shares of active, inactive and inconclusive entries below differ from those in the screen. Calls follow the shape of the dose curve; as a rule, active = well fitted inhibition curve with a large enough effect; inconclusive = small, poorly fitted or top-dose-only effect; inactive = flat fitted curve, though single readings scatter. Potencies of inconclusive entries are left out as doubtful fits. % is scaled to controls: 0 for no effect and ±100 for the full control effect; potency is read from the fitted curve at half-maximal effect; tags tell the direction and shape of the fitted curve."}
{"assay": "qHTS for Inhibitors of human tyrosyl-DNA phosphodiesterase 1 (TDP1): qHTS in cells in presence of CPT; also: nearly all actives have a fitted effect of over 55% in size", "conditions": "chicken DT40 Tdp1-/-;hTDP1 cells + 20 nM CPT, ATP luminescence, 48 h; activity change, negative = growth inhibition: at 46.2 µM (top of the series) unless noted", "how_it_was_run": "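Cell growth measured by CellTiter-Glo luminescence after a minimum 48 h, 37 C compound exposure with 20 nM CPT in Tdp1-knockout DT40 cells stably expressing hTDP1, seeded 400/well; qHTS titration format.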"}
{"smiles": "CCc1cccc(C)c1NC(=O)Cn1cc2c(n1)CCCC2", "Potency": "inconclusive [inhibitor, single point]"}
{"smiles": "O=C(Cc1ccc(-n2c(=O)c3sccc3n(Cc3ccc(F)cc3)c2=O)cc1)NCc1ccco1", "Potency": "active: 16.4 µM"}
{"smiles": "Cc1cc(C)c(C)c(S(=O)(=O)N2CCN(CC(=O)c3c(N)n(Cc4ccccc4)c(=O)n(C)c3=O)CC2)c1C", "Potency": "inconclusive [inhibitor, single point]"}
{"smiles": "COc1cc(C(=O)N(Cc2ccccc2)c2cccc(C)c2)ccc1OCC(=O)N1CCOCC1", "Potency": "inconclusive [inhibitor, single point]"}
{"smiles": "Cc1cc2c3c([nH]c2cc1S(=O)(=O)N1CCC2(CC1)OCCO2)CC(C)(C)CC3=O", "Potency": "inconclusive [inhibitor, single point]"}
{"smiles": "CC(C)(CO)Nc1nc(N2CCCC2)nc(N2CCCC2)n1", "Potency": "inconclusive [inhibitor, single point]"}
{"smiles": "COc1ccccc1N1CCN(C(=O)c2cc(=O)c3cc(C)cc(C)c3o2)CC1", "Potency": "active: 0.0052 µM"}
{"smiles": "CCCN1CCN(CCCNC(=S)Nc2ccc3nc(N4CCN(CC)CC4)cc(C)c3c2)CC1", "Potency": "inconclusive [inhibitor, single point]"}
{"smiles": "Nc1ccccc1SCC(=O)Nc1ccc2c(c1)OCO2", "Potency": "inactive"}
{"smiles": "O=C(Nc1ccc2ccccc2c1)c1cccc2ccccc12", "Potency": "inconclusive [inhibitor, single point]"}
{"smiles": "CCn1cc(C(=O)N2CCN(c3cccc(C)c3C)CC2)c(=O)c2ccc(C)nc21", "Potency": "inconclusive [inhibitor, single point]"}
{"smiles": "COc1ccc(Nc2nc(NC(C)(C)C)nc(N3CCOCC3)n2)c(OC)c1", "Potency": "active: 20.6 µM"}
{"smiles": "O=S(=O)(c1ccc(Br)cc1)c1nc(-c2ccco2)oc1SCc1ccccc1Cl", "Potency": "active: 16.4 µM"}
{"smiles": "CC(C)(C)Nc1nc(OCC#N)nc(N2CCCCC2)n1", "Potency": "inactive"}
{"smiles": "Cc1cccc(C)c1OCc1cc(C(=O)N2CCC(C3CCCCC3)C2)no1", "note": "(stereo not given)", "Potency": "inconclusive [inhibitor, single point]"}
{"smiles": "CCCCn1c(SCC(=O)NC2CC2)nnc1-c1ccncc1", "Potency": "inactive"}
{"smiles": "Cc1noc(C)c1COC(=O)c1cnc(Cl)c(Cl)c1", "Potency": "inactive"}
{"smiles": "Cc1nc2nc(NC(=O)c3cccc(Cl)c3)[nH]n2c(=O)c1Cc1ccccc1", "Potency": "inconclusive [inhibitor, single point]"}
{"smiles": "NC/C=C\\C(=O)O", "Potency": "inactive"}
{"smiles": "CCC(C(=O)N1CCN(c2cccc(C)c2C)CC1)n1nc(C)c2sc3ccccc3c2c1=O", "note": "(stereo not given)", "Potency": "inactive"}
{"smiles": "COc1ccc(CN2CCCC(c3nc(-c4ccncc4)ncc3-c3ccccc3)C2)c(OC)c1OC", "note": "(stereo not given)", "activity change, negative = growth inhibition": "inactive: 6.24% [at 9.04 µM]"}
{"smiles": "O=C(NCC1CCCO1)C1CCN(S(=O)(=O)c2cccnc2)CC1", "note": "(stereo not given)", "Potency": "inactive"}
{"smiles": "NC(=O)c1cccc(-c2cc(Nc3ccc(OC(F)(F)F)cc3)ncn2)c1", "Potency": "inconclusive [inhibitor, single point]"}
{"smiles": "CCn1c(SCC(=O)c2cc(C)n(-c3ccc(C(=O)OC)cc3)c2C)nnc1-c1cccnc1", "Potency": "inconclusive [inhibitor, partial curve]"}
{"smiles": "CCOC(=O)C1CCN(c2cc3c(cc2NC(=O)c2ccccc2OCC)n(C)c(=O)n3C)CC1", "Potency": "active: 20.6 µM"}
{"smiles": "CC(C(=O)O)n1c(-c2ccn[nH]2)n[nH]c1=S", "note": "(stereo not given)", "Potency": "inactive"}
{"smiles": "COc1ccc(CCC(=O)OCC(=O)Nc2ccc(OC)c(OC)c2)cc1OC", "Potency": "inactive"}
{"smiles": "COc1ccc(NC(=S)Nc2cc(C)[nH]n2)cc1Cl", "Potency": "inconclusive [inhibitor, single point]"}
{"smiles": "COc1cccc(CNC(=O)CCn2c(=O)c3cccn3c3ccc(F)cc32)c1OC", "Potency": "inconclusive [inhibitor, partial curve]"}
{"smiles": "CCc1nc2ccc(C(=O)NCCN3CCNC3=O)cn2c1N(C)Cc1ccc(OC)cc1", "Potency": "inconclusive [inhibitor, partial curve]"}
{"smiles": "COC(=O)CNC(=O)c1cn(CC(C)C)c(=O)c2cc(OC)c(OC)cc12", "Potency": "inconclusive [inhibitor, single point]"}
{"smiles": "C(=C\\c1ccnc2ccccc12)/c1cccs1", "Potency": "inconclusive [inhibitor, single point]"}
{"smiles": "Cc1nc2ccccn2c1-c1csc(Nc2ccc(C(=O)O)cc2)n1", "Potency": "active: 2.91 µM"}
{"smiles": "Cc1ccccc1-c1n[nH]c(=S)n1/N=C/C=C/c1ccco1", "Potency": "inconclusive [inhibitor, single point]"}
{"smiles": "O=C(Nc1ccc(-n2nncc2-c2ccccc2)cc1)c1ccccc1", "Potency": "inactive"}
{"smiles": "CCOc1ccc(-n2c(-c3ccc(C)cc3)nc3c(cnn3-c3ccccc3)c2=O)cc1", "Potency": "inactive"}
{"smiles": "Cc1ccc(CCN2CC(C(=O)NCCCN3CCCCC3)CC2=O)cc1", "note": "(stereo not given)", "Potency": "inactive"}
{"smiles": "CC1(C)CC(=O)C=C(NNC(=O)c2ccccc2)C1", "Potency": "inactive"}
{"smiles": "O=C(c1cc(COc2ccc3ncccc3c2)on1)N1CCC[C@H]1CO", "Potency": "active: 6.51 µM"}
{"smiles": "N#Cc1ccc(OCC(=O)N2CCN(S(=O)(=O)c3ccc(Cl)s3)CC2)cc1", "Potency": "active: 16.4 µM"}
{"smiles": "CCOC(=O)C1CCC(CN(Cc2ccccc2)S(=O)(=O)c2ccc(Cl)cc2)CC1", "note": "(stereo not given)", "Potency": "inconclusive [inhibitor, single point]"}
{"smiles": "CC(C)C[C@H](NC(=O)c1nc[nH]c1C(=O)N[C@@H](CCCCNC(=O)OC(C)(C)C)C(=O)OC(C)(C)C)C(=O)OCc1ccccc1", "Potency": "inconclusive [inhibitor, single point]"}
{"smiles": "CCC(C(=O)NCc1ccccn1)n1c2ccccc2c2nc(=O)cc(C)n21", "note": "(stereo not given)", "Potency": "inconclusive [inhibitor, single point]"}
{"smiles": "CCc1ccc2oc(C(=O)N3CCN(c4ccccc4OC)CC3)cc(=O)c2c1", "Potency": "active: 5.17 µM"}
{"smiles": "CCN1C(=O)[C@H]2[C@@H](c3ccc(OC)cc3)N[C@]3(CCCN(Cc4ccccc4)C3=O)[C@H]2C1=O", "Potency": "inactive"}
{"smiles": "COc1ccc(CCNC(=O)Cn2cc(C(=O)c3ccccc3)c(=O)c3ccc(C)nc32)cc1OC", "Potency": "inconclusive [inhibitor, single point]"}
{"smiles": "CC(C)NC(=O)Cn1c(=O)n(CC(=O)N2CCCCC2)c(=O)c2sccc21", "Potency": "inactive"}
{"smiles": "CN(c1ccc(C(=O)NCCC2=CCCCC2)cc1)S(C)(=O)=O", "Potency": "inactive"}
{"smiles": "Cc1ccc(C(=O)N/C(=C/c2ccccc2)C(=O)NCc2ccncc2)cc1", "Potency": "inactive"}
{"smiles": "COC(=O)[C@]1(C)N[C@H](CN(C)C(=O)Nc2ccccc2)[C@@H]2C(=O)N(Cc3ccccc3)C(=O)[C@@H]21", "Potency": "inactive"}
{"smiles": "COC/C=C/C1=CC2=CC(=O)C(C)(OC(=O)c3cnc4ccccc4n3)C(=O)C2=CN1CCOC", "note": "(stereo not given)", "Potency": "inconclusive [inhibitor, single point]"}
{"smiles": "Cc1ccccc1C(=O)Nc1ccccc1C(=O)OCc1cc(=O)n2ccsc2n1", "Potency": "inactive"}
{"smiles": "CCC(=O)c1ccc(N2CCN(C(=O)c3cc([N+](=O)[O-])ccc3F)CC2)c(F)c1", "Potency": "inconclusive [inhibitor, single point]"}
{"smiles": "O=C(c1ccc(F)cc1)N1CCN2C(=O)c3ccccc3C12c1ccc(Cl)cc1", "note": "(stereo not given)", "Potency": "inconclusive [inhibitor, single point]"}
{"smiles": "Cc1cc(C)c(Cn2c3ccccc3c3cnn(CC(=O)N4CCCCC4)c(=O)c32)c(C)c1", "Potency": "inactive"}
{"smiles": "Cc1cccc(/C=C2/C(=O)/C(=C/c3ccccc3C)C3CCC2N3C)c1", "note": "(stereo not given)", "Potency": "active: 20.6 µM"}
{"smiles": "Cc1ccccc1NS(=O)(=O)c1cc(C(=O)N2CCc3ccccc3C2)ccc1C", "Potency": "inactive"}
{"smiles": "CCOc1ccc(-c2cc(CCCC(=O)NCc3ccco3)no2)cc1", "Potency": "inconclusive [inhibitor, single point]"}
{"smiles": "O=C1CC(NS(=O)(=O)c2cccs2)CN1c1cccc(F)c1", "note": "(stereo not given)", "Potency": "inconclusive [inhibitor, partial curve]"}
{"smiles": "c1ccc(CNc2ncnc3scc(-c4cccs4)c23)nc1", "Potency": "active: 10.3 µM"}
{"smiles": "Cc1cc(C)nc(SCC(=O)Nc2ncc(Cc3cccc(Cl)c3Cl)s2)n1", "Potency": "active: 23.1 µM"}
{"smiles": "Cc1ccc(Nc2ncc3c(n2)CC(c2ccco2)CC3=O)c(C)c1", "note": "(stereo not given)", "Potency": "inactive"}
{"smiles": "Cc1ccc(-c2nc3c4ccccc4ccn3c2CC2CCCCC2)cc1", "activity change, negative = growth inhibition": "inconclusive: -31.8% [inhibitor]"}
{"smiles": "COc1ccc(OC)c(/C=N/N2CCN(c3ccc(Cl)cc3)CC2)c1", "Potency": "inconclusive [inhibitor, partial curve]"}
{"smiles": "COc1cccc(N2CC(NC(=O)Cc3cccs3)CC2=O)c1", "note": "(stereo not given)", "Potency": "inactive"}
{"smiles": "COc1cccc(Cn2nnc(C(=O)Nc3ccc(C)cc3)c2N)c1", "Potency": "inactive"}
{"smiles": "N#Cc1c(Nc2ccc(F)cc2)sc(C(=O)c2ccc(F)cc2)c1N", "Potency": "inactive"}
{"smiles": "O=C(NCC(c1ccco1)N1CCCC1)c1cccc(S(=O)(=O)N2CCCCC2)c1", "note": "(stereo not given)", "Potency": "inconclusive [inhibitor, partial curve]"}
{"smiles": "CCN(c1ccccc1)S(=O)(=O)c1ccc(OC)c(NC(=O)c2cc(Cl)ccn2)c1", "Potency": "inconclusive [inhibitor, single point]"}
{"smiles": "CCCc1cc2c(=O)c(-c3nc4ccccc4s3)c(COCC(=O)O)oc2cc1O", "Potency": "inactive"}
{"smiles": "CC(=O)C1=C(c2ccc(Br)cc2)C(=O)c2ccccc2C1=O", "Potency": "active: 1.3 µM"}
{"smiles": "CCCC(=O)Nc1cccc(S(=O)(=O)N(C)c2ccccc2)c1", "Potency": "active: 16.4 µM"}
{"smiles": "COc1cc(CN2CCC(C(=O)N3CCN(c4ccccc4F)CC3)CC2)cc(OC)c1OC", "Potency": "inconclusive [inhibitor, single point]"}
{"smiles": "COc1cccc(NC(=O)CN(C)C(=O)c2cccc(S(=O)(=O)Nc3ccc(C)cc3)c2)c1", "Potency": "inactive"}
{"smiles": "CCN(CC)CCOC(=O)c1ccc(N)cc1Cl", "Potency": "inactive"}
